In PubChem BioAssay AID330 (DTP/NCI, 2004):
Inconclusive results and toxic doses are left out. The source holds more than one record for some entries. Only these are listed. The source may hold further records. Results that share an entry are repeated measurements across runs, samples, wells, individuals or studies. Brackets tell where a record comes from. The letters are not those of the source and start again with each entry.

Test system: P388 leukemia ip, CD2F1 mice, survival T/C
Test: NCI In Vivo Anticancer Drug Screen. Data for tumor model P388 Leukemia (intraperitoneal) in CD2F1 (CDF1) mice
Conditions: endpoint: median survival time, higher = longer survival
[1] = dose: 100.0 mg/kg/injection, schedule: Q01DX005 (ip), vehicle: Klucel (hydroxypropylcellulose) (HPC)
[2] = dose: 12.5 mg/kg/injection, schedule: Q01DX009 (ip), vehicle: saline

In the case of `Cc1ccc(NC(=O)N2CC2)cc1NC(=O)N1CC1`, the T/C (dose: 1.56 mg/kg/injection, schedule: Q01DX009 (ip), vehicle: Klucel (hydroxypropylcellulose) (HPC)) is reported as 120 % of control and 199 % of control.
In the case of `CCC[CH2][Sn]([Cl])([CH2]CCC)[S]C(=S)NCCNC(=S)[S][Sn]([Cl])([CH2]CCC)[CH2]CCC`, the T/C (dose: 3.13 mg/kg/injection, schedule: Q01DX009 (ip), vehicle: Klucel (hydroxypropylcellulose) (HPC)) is reported as 108 % of control and 151 % of control.
`COc1cc(N(CC(C)Br)CC(C)Br)ccc1N=Nc1ccccc1C(=O)O` (stereo not drawn) was tested, and the T/C (dose: 0.78 mg/kg/injection, schedule: Q01DX009 (ip), vehicle: saline with Tween-80) was 101 % of control and 150 % of control.
In the case of `O=P1(N(CCCl)CCCl)NCCCO1` (stereo not drawn), the T/C (dose: 37.5 mg/kg/injection, schedule: Q## X001 (ip), vehicle: saline) is reported as 119 % of control, 124 % of control, 167 % of control, the T/C (dose: 75.0 mg/kg/injection, schedule: Q## X001 (ip), vehicle: saline) is reported as 123 % of control, 160 % of control, 197 % of control and the T/C (dose: 250.0 mg/kg/injection, schedule: Q04DX002 (ip), vehicle: saline) is reported as 109 % of control and 175 % of control.
In the case of `CN(Cc1cnc2nc(N)nc(N)c2n1)c1ccc(C(=O)NC(CCC(=O)OCc2cc3c(cc2Cl)OCO3)C(=O)OCc2cc3c(cc2Cl)OCO3)cc1` (stereo not drawn), the T/C (dose: 3.75 mg/kg/injection, schedule: Q01DX005 (ip), vehicle: saline with Tween-80) is reported as 91 % of control and 188 % of control.
With `c1cc2cc(-c3ccc4cc(C5=NCCN5)[nH]c4c3)[nH]c2cc1C1=NCCN1` the T/C (dose: 100.0 mg/kg/injection, schedule: Q04DX003 (ip), vehicle: saline) was 100 % of control and 159 % of control.
`COc1cc(-c2ccc(Nc3ccccc3C(=O)O)c(OC)c2)ccc1N` was tested, and the T/C (dose: 200.0 mg/kg/injection, schedule: Q04DX003 (ip), vehicle: saline with Tween-80) was 118 % of control and 150 % of control.
`CCCC(=O)NC1=C(N2CC2)C(=O)C(NC(=O)CCC)=C(N2CC2)C1=O` was tested, and the T/C (dose: 3.13 mg/kg/injection, schedule: Q01DX009 (ip), vehicle: saline with Tween-80) was 118 % of control and 150 % of control.
For `CC(C)NC(=O)OCc1c(COC(=O)NC(C)C)c(-c2ccc(Cl)c(Cl)c2)n2c1CCC2`, the T/C (dose: 37.5 mg/kg/injection, schedule: Q01DX009 (ip), vehicle: saline with Tween-80) was 102 % of control and 197 % of control and the T/C [1] was 110 % of control, 182 % of control, 187 % of control.
In the case of `COc1cc2c(cc1OC)C(OC)N(C)c1c-2ccc2cc3c(cc12)OCO3` (stereo not drawn), the T/C (dose: 100.0 mg/kg/injection, schedule: Q04DX003 (ip), vehicle: saline with Tween-80) is reported as 109 % of control, 154 % of control [sample A] and 109 % of control, 154 % of control [sample B].
For `Nc1cc2c(c[n+](CCCCCCC[n+]3cc4c5ccccc5c(N)cc4c4ccccc43)c3ccccc23)c2ccccc12`, the T/C (dose: 0.78 mg/kg/injection, schedule: Q04DX003 (ip), vehicle: other) was 109 % of control and 150 % of control and the T/C (dose: 25.0 mg/kg/injection, schedule: Q04DX003 (ip), vehicle: other) was 95 % of control and 153 % of control.
With `S=P(N1CCCCCC1)(N1CC1)N1CC1` the T/C (dose: 25.0 mg/kg/injection, schedule: Q01DX009 (ip), vehicle: saline) was 112 % of control and 159 % of control.
For `COc1cc2cc(c1Cl)N(C)C(=O)/C=C/C1(C)OC1C(C)C1CC(O)(NC(=O)O1)C(OC)/C=C/C=C(\C)C2OC` (stereo not drawn), the T/C (dose: 16.0 micrograms/kg/injection, schedule: Q01DX009 (ip), vehicle: distilled water + alcohol) was 123 % of control and 158 % of control.
In the case of `Cn1c(N)c(C(=O)/C=C/c2ccccc2)c(=O)n(C)c1=O`, the T/C (dose: 50.0 mg/kg/injection, schedule: Q01DX009 (ip), vehicle: Klucel (hydroxypropylcellulose) (HPC)) is reported as 96 % of control [sample A] and 100 % of control, 113 % of control, 124 % of control [sample B].
With `S=P(N1CC1)(N1CC1)N1CC1.[Cl-].[Cl-].[NH2-].[NH2-].[Pt+4]` the T/C (dose: 3.12 mg/kg/injection, schedule: Q01DX009 (ip), vehicle: saline) was 155 % of control [sample A] and 113 % of control, 122 % of control [sample B] and 123 % of control [sample C] and the T/C [2] was 92 % of control [sample A] and 180 % of control [sample B].
In the case of `CC[C@H]1C[C@H]2CN(CCc3c([nH]c4ccccc34)[C@@](C(=O)OC)(c3cc4c(cc3OC)N(C=O)[C@H]3[C@@](O)(C(=O)OC)[C@H](OC(C)=O)[C@]5(CC)CCCN6CC[C@]43[C@@H]65)C2)C1`, the T/C (dose: 2.0 mg/kg/injection, schedule: Q01DX001 (ip), vehicle: water) is reported as 114 % of control, 153 % of control, 165 % of control and the T/C (dose: 4.0 mg/kg/injection, schedule: Q01DX001 (ip), vehicle: water) is reported as 123 % of control, 168 % of control, 183 % of control.
In the case of `CNC(=O)OCc1c(COC(=O)NC)c(-c2ccc(OC)cc2)n(C)c1C`, the T/C (dose: 50.0 mg/kg/injection, schedule: Q01DX009 (ip), vehicle: distilled water + Tween-80) is reported as 92 % of control and 152 % of control.
In the case of `CC(=O)OC1(C)CC(C)C(=O)C(C(O)CC2CC(=O)NC(=O)C2)C1` (stereo not drawn), the T/C (dose: 216.0 micrograms/kg/injection, schedule: Q01DX009 (ip), vehicle: saline) is reported as 116 % of control and 154 % of control and the T/C (dose: 778.0 micrograms/kg/injection, schedule: Q04DX003 (ip), vehicle: saline) is reported as 109 % of control and 165 % of control.
For `Cc1ccc(NCCNCCO)c2c(=O)c3ccc(O)cc3sc12`, the T/C (dose: 100.0 mg/kg/injection, schedule: Q01DX009 (ip), vehicle: saline with Tween-80) was 111 % of control and 154 % of control.
`Nc1ccc2nc3ccc(=O)cc-3n(-c3ccccc3)c2c1` was tested, and the T/C (dose: 10.0 mg/kg/injection, schedule: Q01DX009 (ip), vehicle: saline) was 102 % of control and 161 % of control.
In the case of `CC(=O)Nc1cc(NC(C)=O)cc(N(CCCl)CCCl)c1`, the T/C (dose: 50.0 mg/kg/injection, schedule: Q01DX009 (ip), vehicle: water) is reported as 123 % of control and 173 % of control.
With `Cc1c2ccncc2c(C)c2c1[nH]c1cc(O)ccc12` the T/C (dose: 100.0 mg/kg/injection, schedule: Q04DX003 (ip), vehicle: distilled water + Tween-80) was 98 % of control and 153 % of control.
With `Cc1cccc(N(CCOS(C)(=O)=O)CCOS(C)(=O)=O)c1` the T/C [2] was 100 % of control and 188 % of control.
With `CCN(CC)CCC(O)(c1ccc2c(c1)OCO2)c1cc(OC)c(OC)c(OC)c1` (stereo not drawn) the T/C [1] was 94 % of control, 100 % of control, 167 % of control.
For `CCN(CC)CCNc1ccc([N+](=O)[O-])c2sc3ccccc3c(=O)c12`, the T/C (dose: 200.0 mg/kg/injection, schedule: Q01DX009 (ip), vehicle: saline with Tween-80) was 117 % of control and 178 % of control.
In the case of `O=C1C2CC(Cl)C(SSC3CC4C(=O)N(SC(Cl)(Cl)C(Cl)Cl)C(=O)C4CC3Cl)CC2C(=O)N1SC(Cl)(Cl)C(Cl)Cl` (stereo not drawn), the T/C (dose: 25.0 mg/kg/injection, schedule: Q01DX005 (ip), vehicle: saline with Tween-80) is reported as 119 % of control and 166 % of control.
